In PubChem BioAssay AID651820 (National Center for Advancing Translational Sciences (NCATS), 2012):
Values joined by “and” are separate entries in the source; they are usually repeats but may differ in a detail not shown here. Equal entries are not always repeated. Screen size: about 340,000 compounds; about 12,000 (3.5%) were called active. Inconclusive means that the source gave no clear call. Such entries were picked first, then a sample of the others. Calls follow the shape of the dose curve; as a rule, active = well fitted inhibition curve with a large enough effect; inconclusive = small, poorly fitted or top-dose-only effect, or another doubt; inactive = no such curve, though single readings can be large or run the other way. No potency is given beside an inconclusive call; the fits are too rough.

Assay: qHTS Assay for Inhibitors of Hepatitis C Virus (HCV)
Conditions: Huh7.5.1 HCVcc-Cre (HCVcc is cell-culture hepatitis C virus) infection, luciferase reporter, 44 h; activity change, negative = inhibition: at 41.8 µM (top of the series)
Outline: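 Seed cells (1,000/well) for 4 h; treat with compound and infect with HCVcc-Cre, moi about 0.5. Incubate 44 h, then detect luciferase activity.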
% is scaled to controls: 0 for no effect and ±100 for the full control effect; potency is read from the fitted curve at half-maximal effect; tags tell the direction and shape of the fitted curve.

Row | SMILES | Potency | activity change, negative = inhibition
1 | COc1ccc2cc(C)c(SCC(=O)Nc3cc(C)on3)nc2c1 | inconclusive [inhibitor, partial curve] | 
2 | COc1cc(NC(=O)C2CC(c3ccccc3Cl)=NO2)cc(OC)c1OC (stereo not drawn) | inconclusive [inhibitor, partial curve] | 
3 | COc1ccc(Nc2nc(NCc3ccco3)nc(N/N=C/c3ccccc3F)n2)cc1 | inconclusive [inhibitor, partial curve] | 
4 | CCN1CCN(C(=O)c2ccc3c(c2)N(Cc2ccccc2F)C(=O)c2ccccc2S3(=O)=O)CC1 | inconclusive [inhibitor, single point] | 
5 | CCCCN1C(=O)NC(=O)C2(Cc3c(nc4c(C)cccn4c3=O)N3CCc4ccccc4C32)C1=O (stereo not drawn) | inconclusive [inhibitor, single point] | 
6 | CC(C)CN(C(=O)COC(=O)c1ccc(Br)cc1)c1c(N)n(Cc2ccccc2)c(=O)[nH]c1=O | inconclusive [inhibitor, single point] | 
7 | COc1ccc(-c2nn(-c3ccccc3)cc2C=O)cc1[N+](=O)[O-] | inconclusive [inhibitor, partial curve] | 
8 | CCCCn1c(SCC(=O)c2ccccc2)nc2c1c(=O)[nH]c(=O)n2C | inactive | 
9 | CCO[C@@H]1OC(C(=O)N2CCCCCCC2)=C[C@H](c2ccc3c(c2)OCO3)[C@H]1CCCO |  | inactive: -3.14% [at 8.37 µM]
10 | CCCCN(CC)CCNC(=O)c1cc2c(=O)n(C)c3ccccc3c2s1 | inconclusive [inhibitor, full curve] | 
11 | Cc1cccc(N2CCN(C(=O)C3CCN(S(=O)(=O)c4cccc5nsnc45)CC3)CC2C)c1 (stereo not drawn) | active: 6.31 µM and active: 11.2 µM | 
12 | c1cncc(-c2nnc(-c3cccnc3)nn2)c1 | inconclusive [inhibitor, single point] | 
13 | COc1cc(/C=C/C(=O)OCC(=O)N(CC(C)C)c2c(N)n(Cc3ccccc3)c(=O)[nH]c2=O)ccc1O | inactive | 
14 | CC1=CCC(/C=N\Nc2nnc3c(n2)[nH]c2ccccc23)CC1 (stereo not drawn) | inactive | 
15 | Cc1ccc2c(c1)cc(C)c1nnc(SCC(=O)NCc3ccco3)n12 | inconclusive [inhibitor, single point] | 
16 | CCCOC(=O)Cn1c(=O)c2cc3c(=O)n(CC(=O)OCCC)c(=O)c3cc2c1=O | inactive | 
17 | CC1(C)CC(=O)C2=C(C1)N(c1ccccc1)C(N)=C(C#N)C2c1ccsc1 (stereo not drawn) | inactive | 
18 | Cc1ccc(S(=O)(=O)CCc2nc3ccccc3n2CCC#N)cc1 | inconclusive [inhibitor, single point] | 
19 | CC(=O)/C(=C\Nc1ccc(OCc2ccccc2)cc1)c1ccccc1 | inactive | 
20 | COc1ccccc1C(=O)n1nc(-c2ccccc2)nc1NCc1ccco1 | inconclusive [inhibitor, single point] | 
21 | O=C(Cc1sc(-c2ccccc2Cl)nc1-c1ccccc1)Nc1ccc(F)cc1 | active: 7.94 µM | 
22 | O=[N+]([O-])c1ccccc1Sc1nccn1Cc1ccccc1 | inconclusive [inhibitor, full curve, poor fit] | 
23 | COCCNc1cc(C)c(C#N)c2nc3ccccc3n12 | inconclusive [inhibitor, single point] | 

Row | SMILES | Potency | activity change, negative = inhibition
24 | CC[C@]12c3[nH]c4ccc(Cl)cc4c3CCN1C(=O)[C@@H](CC(=O)NCC13CC4CC(CC(C4)C1)C3)C[C@@H]2C(=O)N1CCN(C(=O)C2CC2)CC1 | inconclusive [inhibitor, single point] | 
25 | O=C(NCCc1ccc(Cl)cc1Cl)c1cncc(Br)c1 | inconclusive [inhibitor, partial curve] | 
26 | COc1ccc(NC(=O)Cn2c(CCC(=O)O)ccc2-c2ccccc2)cc1 | inactive | 
27 | CCN(CCC(=O)Nc1ccc(Br)c(C)c1)Cc1ccccc1 | inconclusive [inhibitor, single point] | 
28 | Cc1ccc(C(=O)N2CCN(c3ccc(C(F)(F)F)cn3)CC2)o1 | inactive | 
29 | CCCCCCC(=O)N1CCC(c2nc3c(nnn3Cc3ccccc3Cl)c(=O)[nH]2)CC1 | inconclusive [inhibitor, single point] | 
30 | O=C(c1cccc(S(=O)(=O)N2CCCCCC2)c1)N1CCN(Cc2ccccc2)CC1 | inactive | 
31 | COC(=O)c1c(C)[nH]c(C(=O)C(C)Sc2nnc(-c3cc(OC)c(OC)c(OC)c3)o2)c1C (stereo not drawn) | inconclusive [inhibitor, partial curve] | 
32 | Cn1c(=O)n(CCc2ccccc2)c(=O)c2c1ncn2Cc1ccccc1 | inconclusive [inhibitor, single point] | 
33 | CCN(CC)C(=O)Oc1ccc(Br)c2ccccc12 | inconclusive [inhibitor, single point] | 
34 | O=c1c2ccccc2nc2c3ccccc3c(NCc3ccco3)nn12 | inconclusive [inhibitor, partial curve] | 
35 | COc1ccc(N(CC(=O)N/N=C/c2ccc3c(c2)OCO3)S(=O)(=O)c2ccc(NC(C)=O)cc2)cc1 | inconclusive [inhibitor, single point] | 
36 | COc1ccc(Cl)cc1NC(=O)CSc1nnc(CNC(=O)c2cccs2)o1 | inactive | 
37 | CCOC(=O)c1nnn(-c2nonc2N)c1-c1ccc(C)cc1 | inactive | 
38 | Cc1cc(C(=O)CSc2cccc[n+]2[O-])c(C)n1-c1ccc(OC(F)F)cc1 | inconclusive [inhibitor, single point] | 
39 | C[C@@H]1C[C@@H]([C@H](O)CC2CC(=O)NC(=O)C2)C(=O)[C@@H](C)C1 | active: 1.26 µM | 
40 | O=c1cc(N2CCCCC2)c(-c2ccccc2)nn1Cc1ccc(F)cc1 | inconclusive [inhibitor, full curve, poor fit] | 
41 | O=C(O)CCn1c(CO)nc2ccccc21 | inactive | 
42 | Cc1ccccc1C(=O)c1c[nH]c(C(=O)N2CCN(c3ccccc3F)CC2)c1 | inconclusive [inhibitor, single point] | 
43 | c1ccc(SCc2cn(C[C@H]3CC[C@@H]([C@@H]4CC[C@H](Cn5cc(CSc6ccccc6)nn5)O4)O3)nn2)cc1 | inconclusive [inhibitor, single point] | 
44 | C/C(=N\NC(=O)Cn1c(-c2ccccn2)nc2ccccc21)c1ccccc1 | inconclusive [inhibitor, partial curve, poor fit] | 
45 | O=C(/C=C/Nc1ccc(F)c(Cl)c1)c1ccccc1 | inconclusive [inhibitor, single point] | 
46 | C=CCn1c(SCC(=O)OCC)nc2cc(C(=O)NCc3ccco3)ccc2c1=O | inconclusive [inhibitor, single point] | 

Row | SMILES | Potency | activity change, negative = inhibition
47 | Cc1ccc(S(=O)(=O)N2CCCCC2CCNC(=O)C(=O)NCc2ccco2)cc1 (stereo not drawn) | inconclusive [inhibitor, partial curve] | 
48 | NC(=S)N=Nc1c(O)n(Cc2ccc(F)cc2)c2ccccc12 | inconclusive [inhibitor, partial curve] | 
49 | Cc1ccc(NC(=O)COC(=O)CCc2c[nH]c(=O)[nH]2)cc1 | inactive | 
50 | O=C(CN1CCN(C(=O)C2CC2)CC1)Nc1ccc(Cl)cc1F | inactive | 
51 | O=C(c1cc(-c2ccco2)on1)N1CCN(c2ccccc2)CC1 | inconclusive [inhibitor, partial curve] | 
52 | OCC1(Cc2ccccc2)CCN(Cc2ccc(C(F)(F)F)cc2)CC1 | inconclusive [inhibitor, single point] | 
53 | COc1ccc(N2CCN(C(=O)COC(=O)c3oc4ccccc4c3C)CC2)cc1 | inconclusive [inhibitor, partial curve] | 
54 | C#CCSC1=C(C#N)C(c2cccs2)C(C(=O)OCC)=C(C)N1 (stereo not drawn) | inconclusive [inhibitor, partial curve] | 
55 | CCc1ccc(NC(=S)NC2CC3CCC(C2)N3Cc2ccco2)cc1 (stereo not drawn) | inconclusive [inhibitor, partial curve] | 
56 | Cc1ccc(N2C(=O)c3ccccc3NC2C(C)Cc2ccc3c(c2)OCO3)cc1 (stereo not drawn) | inconclusive [inhibitor, partial curve] | 
57 | CC1(C)CC(=O)C(C=NCCN2CCN(C(=O)CC3CCCC3)CC2)=C(O)C1 | inactive | 
58 | O=C(COC(=O)c1cccc([N+](=O)[O-])c1)NCC1CCCO1 (stereo not drawn) | inactive | 
59 | CC(C)n1nnnc1SCC(=O)NNC(=O)C1CCCCC1 | inactive | 
60 | Cc1ccc2cccnc2c1NC(=S)NC(=O)c1ccccc1 | inconclusive [inhibitor, full curve, poor fit] | 
61 | CN1C(=O)NC(c2ccccc2[N+](=O)[O-])C2=C1CC(C)(C)CC2=O (stereo not drawn) | inactive | 
62 | COC(=O)CSC1=C(C#N)C(c2cccc(F)c2)CC(=O)N1 (stereo not drawn) | inconclusive [inhibitor, partial curve] | 
63 | Cc1cc(C)c(C)c(S(=O)(=O)N2CCN(C(=O)C3CCC3)CC2)c1C | inconclusive [inhibitor, partial curve] | 
64 | CCOC(=O)c1cnc(-c2ccccc2)nc1Oc1ccc(OC)cc1 | inactive | 
65 | CC(C)(C)C(=O)CSc1ncnc2sc3c(c12)CCC3 | inconclusive [inhibitor, partial curve] | 
66 | CCc1cc(/C(Cc2cscn2)=N\O)c(O)cc1O | inactive | 
67 | CN(C)c1ccc(S(=O)(=O)NCC(=O)NCc2ccccc2)cc1[N+](=O)[O-] | inconclusive [inhibitor, single point] | 
68 | CC(=O)c1cnc2c(-c3ccc(Cl)cc3)cnn2c1C | inactive | 
